The structures appear in SMILES notation. Where “and” joins values, the source holds several entries; their conditions need not be identical. Identical values can stand only once. Among all 48,000 compounds or so, about 1,200 (2.5%) were called active. About 2% were inconclusive and are not listed.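 The calls were made as follows: active = activation of at least 60% and not above a set upper limit (about 1 call in 100 departs from these limits); inconclusive = activation of 40% to 60%, or above that upper limit; inactive = activation under 40%.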 The list shows a part of the results. Where a SMILES comes first, the peptide text is derived from it. The star is where a group is joined. Cbz = O=C(OCc1ccccc1)*

Chain of UniProt O75388 (O75388 whole entry, looked up): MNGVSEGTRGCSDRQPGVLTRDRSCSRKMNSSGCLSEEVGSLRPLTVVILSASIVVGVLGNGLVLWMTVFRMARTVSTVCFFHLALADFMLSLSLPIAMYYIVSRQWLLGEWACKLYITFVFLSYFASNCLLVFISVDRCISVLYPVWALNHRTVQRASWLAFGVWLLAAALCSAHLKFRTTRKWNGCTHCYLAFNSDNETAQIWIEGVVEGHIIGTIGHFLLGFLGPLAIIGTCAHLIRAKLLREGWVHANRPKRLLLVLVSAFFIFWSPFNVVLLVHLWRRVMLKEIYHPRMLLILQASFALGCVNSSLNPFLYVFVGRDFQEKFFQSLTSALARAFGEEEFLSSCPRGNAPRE

The target of the assay is Probable G-protein coupled receptor 32 (Homo sapiens) (UniProt O75388). Kind of assay: qHTS for Agonists of Human Resolvin D1 Receptor DRV1. Conditions: CHO-K1 GPR32 beta-arrestin PathHunter luminescence, 90 min; at 76.9 µM; stronger effect = higher value; zero percent set by DMSO-only wells. The gist of the method:
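Using DMSO wells as EC0, agonist-induced signal was taken as chemiluminescence from beta-Gal reconstituted upon beta-arrestin recruitment to GPR32 in CHO-K1 cells after 90 min compound treatment.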
On to `Cc1cc(C)c(NC(=O)C2CCN(C(=O)N3CC(C)Oc4ccc(Cl)cc43)CC2)c(C)c1` (stereo not drawn), for which the activation was inactive: -11.6%.

`COc1ccc(NC(=O)c2cc3c(=O)n(Cc4cccs4)ccc3nc2C)c(OC)c1`: the activation was inactive: -15.9%.

Regarding `Cc1cc(C)cc(NS(=O)(=O)c2ccc(-c3cc(C)no3)s2)c1`, the activation was inactive: 0.128%.

Turning to `COc1ccc(NC(=O)Cn2c(=O)n(Cc3nc(C)no3)c(=O)c3cc4c(cc32)OCO4)cc1`, the activation was inactive: -6.08%.

For the compound `CC(=O)OCC(=O)Nc1cc(C#N)cc(NC(=O)COC(C)=O)c1Cl`, the activation is inactive: 11.8%.

As for `Cc1c(C(=O)N(C)C)sc2c1c(=O)n(-c1ccccc1C(F)(F)F)c(=O)n2Cc1ccccc1C#N`, the activation is inactive: -12.3%.

Regarding `CN(C)CCCc1cc(C(=O)Nc2ccc(-c3ccncc3)cc2)ccc1O`, the activation was inactive: -7.62%.

Turning to `NC1[C@H]2CN(c3nc4c(cc3F)c(=O)c(C(=O)O)cn4-c3ccc(F)cc3F)C[C@@H]12` (stereo partly drawn), the activation was inactive: 28.8%.

On to `Cc1ccc(-c2nc3cc(Cl)ccc3o2)cc1NC(=O)c1cc2ccccc2o1`, for which the activation is inactive: -1.71%.

As to `COc1ccc(-c2nsc(NC(=O)COc3ccccc3OC)n2)cc1`, the activation was inactive: 27.1%.

With `CC(C)Cc1nn2c(=O)cc(COC(=O)c3cccc(NC(=O)c4cccs4)c3)nc2s1`, the activation is inactive: -15.7%.

Regarding `COc1ccccc1CNC(=O)CCCn1c(=O)c2ccccc2n(CC(=O)Nc2ccc(C)cc2Cl)c1=O`, the activation was inactive: -0.244%.

Regarding `Cc1ccccc1Cn1c(=O)n(CC2CCC(C(=O)N3CCC(C)CC3)CC2)c(=O)c2sccc21` (stereo not drawn), the activation was inactive: -22.2%.

Take `CC[C@@H](CO)Nc1nc(NCc2ccccc2)c2ncn(C(C)C)c2n1`: the activation was inactive: -5.33%.

`CCOC(=O)c1ccc2c(c1)sc1nc(-c3ccc(OCC)cc3)cn12`: the activation was inactive: -3.7%.

In the case of `COc1cccc(CNC(=O)Cn2c(=O)cc(C(F)(F)F)c3c(C)nn(C)c32)c1OC`, the activation is inactive: 16.7%.

Turning to `O=C(NCCS(=O)(=O)N1CCN(c2ccccc2F)CC1)c1ccccc1C(F)(F)F`, the activation is inactive: -12.9%.

Consider `CCN(CC)CCCNC(=O)c1c2c(nc3ccccc13)C(=O)N(C1CCCCC1)C2`, for which the activation was inactive: 4.35%.

In the case of `Fc1ccc(F)c(Nc2c3c(nc4ccc(Cl)cc24)CCC3)c1`, the activation is inactive: 30.4%.

`COc1ccc(NC(=O)CCc2nc3cccnc3n2-c2ccccc2)c(OC)c1`: the activation is inactive: 2.16%.

On to `COc1ccc(N2C(=O)C(CC(=O)Nc3ccc(Cl)cc3)N(Cc3ccc4c(c3)OCO4)C2=O)cc1` (stereo not drawn), for which the activation was inactive: -2.99%.

As to `CCOC(=O)c1c(NC(=O)c2cc(=O)c3cc(Cl)ccc3o2)sc(C)c1C`, the activation was inactive: 39.3%.

As for `Cc1ccc(C)c(N2CCN(C(=O)CN3CCSc4ccccc43)CC2)c1`, the activation is inactive: -15.9%.

Consider `COc1cc(C(=O)Nc2ccccc2OCc2cc(=O)n3c(C)csc3n2)cc(OC)c1OC`, for which the activation was inactive: 1.74%.

On to `CCOc1ccc(CCNC(=O)CSc2nnnn2-c2ccccc2Cl)cc1OCC`, for which the activation was inactive: -5.93%.

Take `COCCn1c(=N)c(C(=O)NCC2CCCO2)cc2c(=O)n3ccccc3nc21` (stereo not drawn): the activation is inactive: -4%.

As for `CCN1CCN(C(c2ccc(C)cc2)c2sc3nc(-c4ccco4)nn3c2O)CC1` (stereo not drawn), the activation is inactive: 45.6%.

Take `CCOc1ccc(CCNC(=O)CCCc2nnc3n(CCCOC)c(=O)c4sccc4n23)cc1`: the activation is inactive: -2.7%.

On to `O=C1CC(c2ccccc2)Cc2[nH]c(=O)c(C(=O)Nc3ccc(F)cc3)cc21` (stereo not drawn), for which the activation is inactive: 0.803%.

With `Cc1c(C(=O)N2CCCCCC2)c(S(=O)(=O)Nc2ccc(OC(F)(F)F)cc2)c(C)n1C`, the activation was inactive: -6.21%.

On to `CCOC(=O)c1ccc(NC(=O)CSc2cc(-c3ccccc3)nc(C)n2)cc1`, for which the activation was inactive: -22.4%.

On to `Cc1ccc(C)c(N(C)C(=O)CCNC(=O)Cn2cnc3ccccc3c2=O)c1`, for which the activation is inactive: 45.4%.

Regarding `COc1cc2nc(N3CCCN(C)CC3)nc(NC3CCN(Cc4ccccc4)CC3)c2cc1OC`, the activation was inactive: -5.13%.

For the compound `O=C(CNC(=O)c1ccccc1Cl)OCc1cc(=O)n2nc(C3CC3)sc2n1`, the activation was inactive: 11%.

In the case of `Cc1c(-c2ccc(Cl)cc2)c(=O)oc2c(CN3CCN(C)CC3)c(O)ccc12`, the activation was inactive: -13.1%.

For the compound `CC1CCc2c(sc3nc(-c4cc5ccccc5oc4=O)nc(Cl)c23)C1` (stereo not drawn), the activation is inactive: -5.41%.

In the case of `COc1cccc2sc(N(Cc3cccnc3)C(=O)C3CCCCC3)nc12`, the activation was inactive: -35%.

Turning to `CCOC(=O)C1CCCN(C(=O)c2cc3c(Cl)nc4ccccc4c3s2)C1` (stereo not drawn), the activation is inactive: 20.7%.

As for `CCC1Oc2ccc(C)cc2N(CC(=O)NCc2ccc(F)cc2)C1=O` (stereo not drawn), the activation is inactive: -1.78%.

In the case of `O=C(Nc1cccc(Cl)c1)C(Cc1ccccc1)n1cccc1` (stereo not drawn), the activation is inactive: 9.43%.

Take `CC(C)c1nn2c(=O)cc(COC(=O)c3cccc(NC(=O)c4ccccc4F)c3)nc2s1`: the activation was inactive: -18.6%.

In the case of `CCOc1ccc(C2c3c(-c4ccccc4O)n[nH]c3C(=O)N2Cc2cccnc2)cc1OC` (stereo not drawn), the activation is inactive: -12.4%.

As to `O=S(=O)(c1cccc2cnccc12)N1CCCNCC1`, the activation was inactive: -8.16%.

Consider `CCn1c(CN2CCCCC2)nc2cc(NC(=O)COc3cc(C)ccc3C(C)C)ccc21`, for which the activation was inactive: 2.63%.

As for `COc1ccc(Nc2nc(-c3ccccc3)c3cc(Br)ccc3n2)cc1`, the activation is inactive: -42.1%.

With `Cc1ccc(N(C)S(=O)(=O)c2ccc(-c3cnc(C4CC4)o3)cc2)cc1`, the activation is inactive: -34.6%.

On to `CCOC(=O)c1cc(-c2ccccc2)n(-c2cccc(C(=O)NC(C)CC)c2)c1C` (stereo not drawn), for which the activation is inactive: -35%.

With `O=C(Cn1ncc2c3ccccc3n(Cc3ccc(F)cc3)c2c1=O)NC1CCCCCC1`, the activation was inactive: -9.48%.

On to `O=C(C1CCCCC1)N(Cc1cccnc1)c1nc2c(F)cccc2s1`, for which the activation was inactive: -33.9%.

For the compound `Clc1ccccc1CNc1nc2ccccc2c2nc(-c3ccccc3)nn12`, the activation is inactive: -7.15%.

`CC(C)Oc1ccc(CNC(=O)c2ccc3c(c2)N(Cc2ccc(F)cc2)CCS3)cc1`: the activation is inactive: -21.1%.

Consider `OC[C@H]1NC[C@@H](O)[C@@H]1O`, for which the activation was inactive: -0.486%.

With `NC(=S)c1ccc[n+]([C@@H]2O[C@@H](COP(=O)([O-])OP(=O)(O)OC[C@H]3O[C@@H](n4cnc5c(N)ncnc54)[C@H](OP(=O)(O)O)[C@@H]3O)C(O)C2O)c1` (stereo partly drawn), the activation was inactive: 8.95%.

Turning to `COc1cc2c(cc1OC)C(COc1ccccc1OC)N(C(=O)c1ccc(S(=O)(=O)N3CCCC3)cc1)CC2` (stereo not drawn), the activation is inactive: -5.88%.

In the case of `Cc1ccc(C)c(NC(=O)N2CCN(c3nnc(C)c4c(C)n(-c5ccccc5)nc34)CC2)c1`, the activation was inactive: -4.53%.

With `CC(C)[C@H](NC(=O)OCc1ccccc1)C(=O)N[C@H](C=O)Cc1ccccc1` (Cbz-Val-Phe-aldehyde), the activation was inactive: -6.37%.

Regarding `Cc1cc(C)c(S(=O)(=O)Nc2ccc(-c3ccc(N4CCCCC4)nn3)cc2)c(C)c1`, the activation is inactive: 13.5%.

With `CCOc1ccccc1NC(=O)c1c(NC(=O)Cc2ccccc2)sc2c1CCCC2`, the activation is inactive: -26.1%.

`COc1ccc(C)cc1NC(=O)CN1CCCN(S(=O)(=O)c2ccc(Br)cc2)CC1`: the activation was inactive: -10%.

In the case of `Cn1cc(C(=O)N2CCN(c3cccc(Cl)c3)CC2)c(=O)c2cc(S(=O)(=O)N3CCCC3)ccc21`, the activation is inactive: 5.68%.

Take `O=C(O)Cc1cccc2ccccc12`: the activation was inactive: 45.4% and inactive: -6.42%.

As to `COCCCNC(=O)CN1C(=O)COc2ccc(S(=O)(=O)N3CCOCC3)cc21`, the activation was inactive: -4.41%.

As for `CCOc1ccc(NC(=O)CSc2ccc3ccccc3n2)cc1`, the activation was inactive: -17%.

For `COC(=O)c1cc(OC)c(OC)c(OC)c1NC(=O)c1cc(=O)n(C)c(=O)n1C`, the activation is inactive: -7.72%.

On to `COC(=O)c1cccc(Nc2c(-c3ccc(O)cc3)nc3nc[nH]n23)c1`, for which the activation was inactive: -18.8%.

In the case of `COc1ccc(N2CCN(C(=O)c3cn(C4CCCCC4)c(=O)c4c3c3ccccc3n4C)CC2)cc1`, the activation was inactive: -33.9%.

As for `O=C(CCNS(=O)(=O)c1cccc2nonc12)Nc1ccc(F)cc1`, the activation was inactive: -4.46%.

`COC(=O)CSCc1nc(-c2ccc(C(=O)OC)cc2)oc1C`: the activation was inactive: -5.3%.

As to `CCN(CC)c1nn2c(=O)c(C(=O)NCc3cccc(OC)c3OC)cnc2s1`, the activation was inactive: -0.526%.

Take `COc1cccc(NC(=O)CSc2cc(C)[nH]c(=O)n2)c1`: the activation is inactive: 7.27%.

With `COCCCNC(=O)c1sc2nc(C)c(C(=O)Nc3ccc(Cl)cc3)c(-c3ccc(Br)cc3)c2c1N`, the activation was active: 64.1%.

As to `CC1N=C2c3ccccc3N=C(SCC(=O)NCc3ccc(Cl)cc3)N2C1=O` (stereo not drawn), the activation is inactive: -11.6%.

Consider `CCCNC(C)(C)COC(=O)c1ccccc1`, for which the activation was inactive: 5.96%.

In the case of `CCS(=O)(=O)N1CC(=O)N(c2cccc(C)c2C)C(C)(C(=O)NC2CCCCCC2)C1` (stereo not drawn), the activation is inactive: -0.0738%.

`COc1cccc(-c2n[nH]c3c2C(c2cccc(O)c2)N(C)C3=O)c1` (stereo not drawn): the activation was inactive: -19.8%.

Consider `Cc1nc(SCC(=O)Nc2ccccc2Cl)cc(-c2ccccc2)n1`, for which the activation is inactive: -6.92%.

With `Cc1c2cnn(-c3ccccc3)c(=O)c2c(C)n1CC(=O)N1CCN(c2cccc(Cl)c2)CC1`, the activation was inactive: -1.5%.

As to `COc1ccc(CNC(=O)c2cnn(-c3ccc(OC)cc3)c2C2CCN(C(=O)OC(C)(C)C)CC2)cc1`, the activation is inactive: -19.5%.

`Cc1ccccc1OCC(=O)NCC(c1ccc(Cl)cc1)N1CCOCC1` (stereo not drawn): the activation is inactive: -6.15%.

`CCCCOc1ccc(S(=O)(=O)Nc2ccc(-c3ccc(N4CCCCC4)nn3)cc2)cc1`: the activation was inactive: -2.78%.

In the case of `Cc1cccc2c1-c1sc(C(=O)Nc3ccccc3C(N)=O)cc1CO2`, the activation was inactive: -5.23%.

On to `CCC(=O)Nc1cc(-c2nc3cc(C)cc(C)c3o2)ccc1C`, for which the activation is inactive: -21.5%.

Turning to `CCc1cc2c(cc3c(=O)n(CC(=O)NC4CCC(C)CC4)nc(CC)n32)s1` (stereo not drawn), the activation is inactive: -9.51%.

Source of the values: PubChem BioAssay AID1346428 (National Center for Advancing Translational Sciences (NCATS), 2018).
